The results in this text go back to the RNAGym collection of RNA variant scans (doi:10.1093/nar/gkz1192).

First the molecules themselves.
B1: CPEB3 Ribozyme (parent)
chain: UAACAGGGGGCCACAGCAGAAGCGUUCACGUCGCAGCCCCUGUCAGAUUCUGGUGAAUCUGCGAAUUCUGCUGUAUAUCUC

The source gives no read counts; variants with many changes may rest on few reads.

In this series the parent is B1. As to the kind of experiment: self-cleavage, relative activity (ratio to wild type); higher = more cleavage; in vitro, sequencing. In a few lines:
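Relative activity was defined as the cleaved/total read fraction for a variant divided by the same fraction for the unmutated ribozyme. CPEB3 self-cleaving ribozyme libraries were made by rounds of error-prone PCR, barcoded, and transcribed in vitro with T7 RNA polymerase for 5 hours at 37°C, and cleavage ran through transcription plus a 15 min DNase I step before EDTA. Illumina sequencing of template-switched reverse transcripts gave the reads, and DNA sequencing mapped the barcodes. Averages come from three batches, using variants with at least 5 reads.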
Turning to UAACAGGGGGCCUCAGCAGGAGCGUUCACGUCGCAGCCACUGUCUGAUUCUAGCGAAUCUGUGAAUUCUGCUGUAUAUCUC, the self-cleavage was 0.06.
Turning to UAACAGGGGGCCUCAGCAGAAGCGUUCUCGUCGCAGCCCCUGUCAGAUUCUGGCGAAUCUGCGAAUUCUGCUGUGUAUCUC, the self-cleavage was 0.93.
As to UAACAGGGGGCCUCAGCAGAGGCGUUCACGUCGCAGCCCCUGUCCGAUUCUGGUGAAUCUGCGAAUUCUGGUGUAUAUCUC, the self-cleavage came to 0.12.
The result for UAACAGGGGGCCUCAGCAGAAGCGUUCUCGUCGCAGCCCCAGUCAUAUUCUGGUGAAACUGCGAAUUCUGCUGUAUAUCUC reads 0.13; that for UAACAGGGGGCCUCAGCAGGAGCGUUCACGUCGCAGCCCCUGUCAGAUUCUGGUGAAUCUGCGAAUGCUGCUGUAUAUCUC, 0.25.
In the case of UAACAGGGGGCCUCAGCAGAGGCGUUCACGUCGCAGCCCCUGUCAGAUUCUGGUGAAUCUGCGAAUUCUGCUGUAUAUCAC, the self-cleavage was found to be 0.15.
For the variant UAACAGGGGGCCUCAGCAGAAGCGUUCACGUCGCGGCCCCUGUCAGAUUCUGGGGAAUCUGCGAGUUCUACUGUAUAUCUC, the self-cleavage turned out to be 0.5.
The result for UAACAGGGGGCCUCAGCAGAAGCGUUCUCGUCGCAGCCCCUGUCAGAUUCUGGUGAGUCUGCGAAUUCUGCUGUAUAUCUC reads 0.93; that for UAACAGGGGGCCUCAGCUGAAGCGUUCACGUCGCAGCCCCUGUCAGAUUCUGGUGAAUCUGCGUAUUCUGCUGUAUAUCUC, 0.19.
Then UAACAGGGGGCCUCAGCAGAGGCGUUCACGUCGCAGCCCCUGUCAGAUUCUGGUGAUUCUGCGAAUUCUGCUGUAUAUCUC, with 0.13; and UAACAGGGGGCCUCAGCAGAGGCGUUCAUGUCGCAGCCCCUGUCAGAUACUGGUGAAUCUGCGAAUUCUGCUGUAUAUCUC, with 0.09.
As for UAACAGGGGGCCUCAGCAGAGGCGCUCACGUCGCAGCCCCUGCCAGAUUCUGGUGAAUCUGCGAAUUCUGCAGUAUAUCUC, the self-cleavage came to 0.18.
Then UAACAGGGGGCCUCAGCAGGAGCGCUCACGUCGCAGCCCCUGUCAGAUUCUGGUGAAUCUGCGAAUUCUGUUGCACAUCUC, with 0.13; and UAACAGGGGGCCUCAGCAGAAGCGUUCCCGCCGCAGCCCCUGUCAGAUUCUGGUGAAUCUGCGAAUUCUGCUGUAUAUCUC, with 0.43; and UAACAGGGGGCCUCAGCUGAAGCGUUCACGUCGCUGCCCCUGUCAGAUUCUGGUGAAUCUGCGAAUUCUGCUGUAUAUCUC, with 0.22.
Then UAACAGGGGGCCUCAGCAGAGGCGUUCACGUCGCUGCCCCUGCCAGACUCUGGUGAAUCUGCGGAUUCUGCUGUAUAUCUC, with 0.05; and UAACAGGGGGCCUCAGCAGUAGCGUUCACGUCGCAGCCCCUGUCAGAUCCUGGUGAAUCUGCGAAUUCUGGUGUAUAUCUC, with 0.06; and UAACAGGGGGCCUCAGCAGAGGCGUUCACGUCGCAGCCCCUGUUAGAUUCUGGUGGAUCUGCGAAUUCGGCUGUAUAUCUC, with 0.11.
Consider UAACAGGGGGCCUCAGCAGAAGCGUUCUCGUCGCAGCCCCCGUCAGAUUCUGGUGAAUCUGCGAAUUCUGCUGUAUAUCUC, for which the self-cleavage worked out at 0.64.
For the variant UAACAGGGGGCCUCAGCAGAAGCGUUCUCGUCGCAGCCCCAGUCAGAUUCUGGUGAAUCUGCGAAUUCUGCUGUAUAUCUC, the self-cleavage stood at 0.2.
For the variant UAACAGGGGGCCUCAGCAGAAGCGUUCUCGUCGCAGCCCCUGUCAGAUUCUGGUGAAUCUGCAAAUUCUGCUGUAUAUCUC, the self-cleavage was determined as 0.76.
The result for UAACAGGGGGCCUCAGCAGAAGCGUUCUCGUCGCAGCCCCUGUCAGACUCUGGUGAAUCUGCGAAUCCUGCUGUAUUUCUC reads 0.16; that for UAACAGGGGGCCUCAGCAGAGGCGUUCACGUCGCAGCCCCUGCCAGAUUCUGGCGAAUCUGCGAAUUCUGCUGCAUAUCUC, 0.04; that for UAACAGGGGGCCUCAGCAGAUGCGUUCGCGUCGCAGCCCCUGUCAGAUACUGGUGAAUCUGUGAAUUCUGCCGCAUAUCUC, 0.06.
Regarding UAACAGGGGGCCUCAGCAGGAGCGUUCACGUCGCAGCCCCAGUCAGAUUCUGGUGAAUCUGCGAAUUCUGCUGUGUAUCUC, the self-cleavage was found to be 0.07.
Then UAACAGGGGGCCUCAGCAGAAGCGUUCGCGUCGCAGCCCCUGACAGACUCUGGUGAAUCUGCGAAUUCUGCUGUAUAUCGA, with 0.25.
The result for UAACAGGGGGCCUCAGCAGGAGCGUUCACGUCGCAGCCCCUGUCAGAUUCUGGUGAAUCUGCGAAUUCUGCUGUAUAUCCC reads 1.25; that for UAACAGGGGGCCUCAGCAGAAGCGUUCGCGUCGCAGCCCCUGUCAGACUCUGGUGAAUCUGCGACUUCUGCUGUAUAUCUC, 0.11.
For the variant UAACAGGGGGCCUCAGCAGAGGCGUUCACGUCUCAGCCCCUGUCAGACUCUGGUGUACGUGCGAAUUCUGCUGUAUAUCUC, the self-cleavage was 0.02.
Then UAACAGGGGGCCUCAGCAGAGGCGUUCACAUCGCAGCCCCUGUCAGAUUCUGGUGGAUCUGCGAAUUCUGCUGCAUAUCUC, with 0.16.
The result for UAACAGGGGGCCUCAGCAGAAGCGUUCGCGUCGCAGCCCCCGUCAGAUUCUGGUGAACCUGCGAAUUCUGCUGUAUAUCUC reads 0.29.
The result for UAACAGGGGGCCUCAGCAGAGGCGUUCACGACGCGGCCCCUGUCAGAUUCUGGUGAAUCUGCGAAUUCUGCUGUAUAUCUC reads 0.99.
As to UAACAGGGGGCCUCAGCAGAAGCGUUCGCGACGCAGCCCCUGUCAGAUUCUGGUGAAUCUGCGAAUUCUGCUGUAUAUCUC, the self-cleavage amounted to 0.39.
Then UAACAGGGGGCCUCAGCAGAGGCGUUCACGUCGCAGCCCCUGUCAUAUUCUGGUGAAUCGGCGAAUUCUGCUGCAUAUCUC, with 0.11; and UAACAGGGGGCCUCAGCAGAUGCGUCCACGACGCAGCCCCUGUCGGAUUCUGAUGAAUCUGCGAAUUCUGCUGUAUAUCUC, with 0.06; and UAACAGGGGGCCUCAGCAGAAGCGUUCGCGUCGCAGCCCCUGUCAGAUUCUGGUGAAACUGCGAAUUCUGCUGUAUACCUC, with 0.11.
The result for UAACAGGGGGCCUCAGCAGUAGCGUCCUCGUCGCAGCCCCUGUCAGAUUCUGGUGUAUCUGCUAGUUCUGCUGUAUAUCUC reads 0.09; that for UAACAGGGGGCCUCAGCAGAUGCGUUCACGUCGCAGCCCCCGUCAGAUUCCGGUGAAUCUGCGAAUGCUGCAGUAUAUCUC, 0.06.
As to UAACAGGGGGCCUCAGCAGGAGCAUUCACGUCGCAGCCCCUGUCAGAUUCUGGUGAAUCUGCGAAUUCUGCUGUAUAACUC, the self-cleavage stood at 0.08.
As for UAACAGGGGGCCUCAGCAGAAGCGUUCACGUCGCGGCCCCUGUCAGAUUCUGGUGAAUCUGCGGAUUCUGCUGUAUACCUC, the self-cleavage turned out to be 1.34.
The result for UAACAGGGGGCCUCAGCAGAAGCGUUCUCGACGCAGCCCCUGUCAGAUUCUGGUGAAUCUGCGAAUUCCGCUGUAUAUCUC reads 0.14; that for UAACAGGGGGCCUCAGCAGAAGCGUUCGCGUCGCAGCCCCUGUCAGAUUCCGGUGAGUCUGCGAAUCCUGCUGUAUAUCUC, 0.13; that for UAACAGGGGGCCUCAGCAGAAGCGUUCUCGUCGCAGCCCCUGCCAGAUUCUGGUGAACCUGCGAAUUCUGCUGUAUAUCCC, 0.08.
On to UAACAGGGGGCCUCAGCAGGAGCGUUCACGUCGCUGCCCCUGUCAGAUUCUGGUGAAUCCGCGAAUUCUGCCGUAUAUCUC, for which the self-cleavage stood at 0.44.
Then UAACAGGGGGCCUCAGCAGAGGCGUUCACAUCGCAGCCCCUGUCAGAUUCUGGUGAAUCUGCGAAUUCUGCUGUUUAUCUC, with 0.16; and UAACAGGGGGCCUCAGCAGAUGCGUUCACGUCGCAGCCCCUGCCAGAUUCUGGUGAAUCUGCGCAUUCUGCUGUAUAUCCC, with 0.08; and UAACAGGGGGCCUCAGCAGUAGCGUUCACGUCGCAGCCCCUGUCAGAUUCUGGUGAAUCUGCGAAUUCUGCCGUAUAUCAC, with 0.34.
The result for UAACAGGGGGCCUCAGCAGGAGCGUUCACGUCGCAGCCCCUGACAGACUCUGGUGAAUCUGCGAAUUCUGCUGUAUAUCUC reads 0.65; that for UAACAGGGGGCCUCAGCAGAGGCGUUCACGUCGCAGCCCCUGUCCGAUUCUGGUGAGUCCGCGGAUUCUGCUGUAUAUCUC, 0.07.
Take UAACAGGGGGCCUCAGCAGAGGCGUUCACGUCGCAGCCCCUGUCAGGUUCAGGUGAAUCUGCGAAUUCUGCUGUAUAUCUC: the self-cleavage amounted to 0.35.
Then UAACAGGGGGCCUCAGCAGGAGCGUUCACGUCGCAGCCCCUGUCAGGUUCCGGUGAAUCUGCGAAUUCUGCUGUAUAUCUC, with 0.14; and UAACAGGGGGCCUCAGCAGGGGCGUGCACGUCGCAGCCCCCGUCAGAUUCCGGUGAAUCUGCGAAUUCUGCUGUAUAUCCC, with 0.05; and UAACAGGGGGCCUCAGCAGAGGCGUCCACGUCGCAACCCCUGUCAGAUUCUGGUGAAUCUGCGAAUUCUGCUGUAUAUCCC, with 0.05.
The result for UAACAGGGGGCCUCAGCAGAAGCGUUCUCGUCGCAGCCCCUGUCAGAUUCUGGUGAAUCUGCGAAUUCUGCAGCAUAUCUC reads 0.21; that for UAACAGGGGGCCUCAGCUGAAGCGUUCACGUCGCAGCCCCUGUCAGAUUCUGGUGGAUCUGCGCAUUCUGCAGUAUAUCUC, 0.18.
As for UAACAGGGGGCCUCAGCAGAUGCGUUCACGUCGCAGCCACUGUCAGAUUCUGGUGAAUCUGCGAAUUCUGCUGUAUAUCUC, the self-cleavage was 0.18.
Then UAACAGGGGGCCUCAGCAGAAGCGUUCACGUCGCUGCCCCUGUCAGAAUCUGGUGAAUUUGCGAGUUCUGCUGUAUAUCCC, with 0.06.
Then UAACAGGGGGCCUCAGCAGGAGCGUACACGUCGCAGCCCCUGUCAGAUUCUGGUGAAUCUGCGAAUUCUGCUGUAUAUCUC, with 0.92.
Then UAACAGGGGGCCUCAGCAGAGGCGUUCACUUCGCAGCCCCUGUCAGAUUCUGGUGAAUCUGCGAAUUCUGCUGUAUAUCUC, with 0.09.
As to UAACAGGGGGCCUCAGCAGUAGCGUUCACGUCGCAGCCCCUGUCGGAUUCUGGUGAAUCUGCGGAUUCUGCUGUAUAUCUC, the self-cleavage is 0.11.
Take UAACAGGGGGCCUCAGCAGUAGCGUUCACGUCGCAGCCCCUGUCUGAUUCUGGUGAAUCUGCGAAUUCUGCUGUAUAUCUC: the self-cleavage came to 0.5.
Then UAACAGGGGGCCUCAGCAGCAGCGCUCACGUCGCAGCCCCUGUCAGGUUCUGGUGAACCUGCGAAUUCUGCUGUAUAUCUC, with 0.23; and UAACAGGGGGCCUCAGCAGAAGCGUUCACGUCGCGGCCCCUGUCAGGUUCAGGUGAAUCUGCGAAUUCUGCUGUAUAUCUC, with 1.28; and UAACAGGGGGCCUCAGCAGAAGCGUUCGCGUCGCAGCCCCUGUCAGAUUCUGGUGAAUCUGUGAGUUCUGCCGUAUAUCAC, with 0.08.
Consider UAACAGGGGGCCUCAGCAGUAGCGUUCACGUCGCAGCCCCUGCCAGAUUCUGGUGAAUCUGCGAGUUCUGCUGUAUAUCUC, for which the self-cleavage worked out at 0.33.
Regarding UAACAGGGGGCCUCAGCAGAAGCGUUCUCGUCGCAGCCCCUGUUAGAUUCAGGUGAAUCUGCGAAUUCUGCUGUAUAUCUC, the self-cleavage came out at 0.16.
The result for UAACAGGGGGCCUCAGCAGAAGCGUUCACGUCGCGGCCCCUGUCAGAUUCUGGUGAAUCUGCGGAUUCUGCUGUACAUCUC reads 1.31.
The result for UAACAGGGGGCCUCAGCUGAAGCGUUCACGUCGCAGCCCCUGUCAGAUUCUGGUGAAUCUGCGAAUUCUGCUGUAUACCUC reads 0.61.
